Test results: the RNAGym collection of RNA variant scans (doi:10.7554/elife.90254)
The source gives no read counts; variants with many changes may rest on few reads.

B1: OR4K15 (parent)
chain: GUUAACGGUCAUAGGCCAUGGAAACUAGGAGCACCAUUUCGCUGCCAGUGAAGAAAUGAACAAAGAAAAUCUGGGCCAGGCAGGCAUCAAAAGAAAUAGUCUUGCGCUCAACCAGAAAGUCUGUAAUCAUUUUAAGGGUA

Variants of: B1
Experiment: self-cleavage, relative activity (ratio to wild type); higher = more cleavage; in vitro, sequencing; the parent is a self-cleaving ribozyme

Row | Variant | self-cleavage
1 | U37C C76A U124C | 0.13
2 | A5G U43A A55C C81U U103A U108C A126G A135U | 0
3 | U72G A90G A117G U132C | 0.14
4 | A52G A95G A116G | 1.9
5 | A5U U100C A114G | 1.24
6 | U38G A51G A68G U124C | 0.8
7 | A36C U87C U131C | 0.77
8 | A27G A52U A89G U120C | 0.91
9 | U9C U38C A96G | 2.56
10 | U9C G29A A30G A94G U127C | 1.18
11 | A33C A66G U108A | 0.03
12 | U39C A52G A66G U70C G79A | 0.33
13 | A23U A54U U72C A98G | 0.08
14 | U12C A55G U132C | 1.09
15 | A5G U39A U127C | 1.16
16 | U57A A67G U130G | 1.16
17 | A22U A36G G41A U49A U97A | 1.29
18 | U2A A60G G74A | 0.2
19 | A82C A98C U108A | 0.01
20 | A30G A55C A66G A96G U108C | 0.01
21 | A27G U70C U103C A126G | 0.18
22 | A64G A92C A94U A118G | 0.93
23 | A68G U72C A125G | 0.03
24 | A66G A67G U102C U108C A129G | 0.02

Row | Variant | self-cleavage
25 | A64U A82G A114G A117G | 0.16
26 | A30G U43C A91G U102A | 0.47
27 | U57A A59U A126U U131C | 0.94
28 | A23G A78C A90G | 0.36
29 | A56U A90G A114U | 0.01
30 | A51U A86G A94G A118G | 0.53
31 | A36G A89G A96G A110C | 0.11
32 | A60G A68C A134G | 0.74
33 | A54G A66G U97C G99A A126G | 0.38
34 | A66U U97A U122C | 1.78
35 | A27U A59G A64G A69U U102C | 1.76
36 | A33U A96G A129G | 2.25
37 | U9C C34U U127C | 1.27
38 | U3C U12A A89U A98G U120C A126G | 0.05
39 | U2C U19C U139A | 1.46
40 | U57C A89U A92G U122C | 1.1
41 | A13U U57C A64G U103C U108C | 0.02
42 | A27G U39C U43A | 0.9
43 | U49C A78U A91G | 0.07
44 | U9A A30G U37C A52G | 1.52
45 | U39C A89G A98G U133C | 0.91
46 | U49C A52G A66U U72C A86G | 0.1
47 | A30C A66G A67U C71G U72G A94G U139A | 0.3
48 | G28U A68G G80U A126G G138U | 0.03

Row | Variant | self-cleavage
49 | U70C A90U U122C U131C | 0.27
50 | A24C U57C A89G A96G G106U | 0.02
51 | G15C U122C U131C U139C | 0.54
52 | U38C A55G G99A U102C A129G | 0.56
53 | A5G U37C G119A | 1.53
54 | U12C A24G A33U A55G A64G | 0.94
55 | A27U A47G A54G A68G A92U A117G | 2.24
56 | U38C U43C A90G A125G | 0.44
57 | A51G A64G U102A U103C A111G U130A | 0.01
58 | A11U U72C U124A | 0.08
59 | U19C A24G A64G A140G | 1.06
60 | A54G A60G U120C C128U U139A | 0.4
61 | A30G G80U C81U | 0.18
62 | A60G A114G A126G | 0.31
63 | A64G A125G G138A | 0.61
64 | U19A U100C A126G | 1.39
65 | U2A G31U A52G A92G | 1.45
66 | U102C U122C A135G | 1.42
67 | A89G U102C A110G | 0.17
68 | A5G A18G A94G U131C | 2.07
69 | A24G A51C A55G | 0.96
70 | U9C U39A A63G A68G A96G C113U | 0.26
71 | G20U A92U A94U A96G U97A A129G | 1.67
72 | A23G A33U A54G A63G G104A A126G A129G | 0.03

Row | Variant | self-cleavage
73 | A51G A60G C77U | 0.08
74 | A23U A69G U108A | 0.04
75 | C10A A59U A82G A96G | 0.23
76 | U43C U87C A126G | 0.8
77 | U39C U43C A68C A86U | 1.16
78 | U19C A24G U26C A63G U127C | 0.88
79 | A36G A51U A68G | 1.39
80 | U9C A55G A126G | 0.89
81 | U87C A117G U130C | 1.23
82 | A5G U49G A55G A63G U139C | 0.46
83 | A30G A52G A96U | 1.44
84 | A54U U70C C76G A90G | 0.1
85 | A47G U108C A110G A117G | 0
86 | A47G A125G U127C | 0.06
87 | C6U A18U U122C | 0.67
88 | U9C A13U U39C U57C A92G A134U | 0.94
89 | A27G A52U C85U | 0.93
90 | A56G A60U A67G A89U | 2.33
91 | A60G A94G U102C | 1.44
92 | A95G U102A A116G U133C | 1.28
93 | A82G A96U A134G | 0.15
94 | A54U U70C A129G A140G | 0.43
95 | A13G U130C G137U | 0.33
96 | A68G U102C U108C | 0

Row | Variant | self-cleavage
97 | A33G A69U A118G A125G | 0.1
98 | G7A A67G A92G A94G A98G U120C | 0.17
99 | A51G A55G A64G C76G A126G | 0.03
100 | U38C A78C U102C U131C | 0.45
101 | U122G C128U A129G | 2.45
102 | G21A A23G A69G U72G U108A A114U | 0.02
103 | A36G A78U C107U A125G | 0.01
104 | U9C A33G A94G | 1.27
105 | G58U A129G U131C | 0.88
106 | U19C A22G A135U | 1.13
107 | C32U A89G A95G U97C U100C U127C | 1.67
108 | G7U U12C A30G A91G | 0.62
109 | A5G U39C U127A | 1.02
110 | A59G A78G U127A | 0.19
111 | A24G U72G A96G | 0.42
112 | A18U U26C A59G G73A A110U U120C | 0.06
113 | A64G A91U A118G | 1.54
114 | U37C A69G A116U U124C | 0.2
115 | A59G A78G A82G | 0.17
116 | U2C A5G A24G U43A A140G | 0.67
117 | A18G A117G U122A | 1.13
118 | U9C A23G U39A U102C | 1.13
119 | A62G A89C U139A A140U | 1.08
120 | A69G A78U A114G A126C | 0.01

Row | Variant | self-cleavage
121 | G8A A22U G75A U103C | 0.15
122 | U37C U87C A96G U100C | 1.18
123 | U57A C85A A118G A135G | 0.93
124 | A55G A62U U70C A114G | 0.03
125 | A30G U57A U72C | 0.49
126 | A55G A63G A82G | 0.77
127 | A11G A60G U72A | 0.31
128 | A30G C42G A98G | 0.99
129 | A18G A27G A33G A98G | 1.94
130 | A51G A68G A89G U131C | 1.03
131 | A51U U57A A62G A92G | 0.13
132 | A5G A24G C61A A92G U122C | 0.74
133 | A67G A92G A125G | 0.88
134 | U2C U12C A23U A66U U97A A116G | 0.9
135 | C40A A69G A116G | 0.63
136 | A55U U72C G106A | 0.02
137 | A47G U49A A51G A67U A117G | 1.78
138 | A51G A64U A110G U139A | 0.1
139 | A96G U103A U122C | 0.37
140 | A91G A94G U103G A111G | 0.03
141 | A33U A36U A82C A90U U122G | 0.31
142 | C6A A13U A126G U131C | 0.52
143 | G14A G28A A56G G84C U87C | 0.15
144 | A27G U39C A55G | 0.79

Row | Variant | self-cleavage
145 | A52G A54G C88A | 1.35
146 | A92G U108C A129G | 0
147 | A54U G83A U87C A118G | 0.98
148 | A22G A24G A140U | 1.15
149 | A55G A67G U103A | 0.95
150 | A11G C46A U130C | 0.59
151 | A51U A64G A92G | 1.36
152 | U2C C32A A82G A116G | 0.54
153 | U26A U87C A95U A140U | 1.65
154 | A33G A116G A118G | 0.14
155 | A51G A95G U120C | 1.59
156 | U9C U19A U122C | 1.02
157 | C6U A47G A52G A67G C113A A118G | 0.02
158 | U12A A52G A78U A96G A110G A129U | 0.03
159 | A33U U37C U43C A68G A116G | 1.29
160 | U38C A67G U103A U120A | 0.7
161 | A5U A24C A118U | 0.82
162 | A30G U72A A117U U130C | 0.17
163 | U38C C42U A82G | 0.61
164 | A52G U97C A111G | 0.03
165 | U19C A22G U49C A91U | 1.11
166 | A36G A89U A95G G104A | 0.28
167 | U37C A90U G123A | 1.64
